From the supplement of paper PMC11417369
± gives the standard deviation of the averaged measurements. The list shows a part of the results.

tested on: PfAP2-LT AP2 domain (GST-tagged); experiment: gcPBM binding intensity (ln(normalized median fluorescence intensity)); higher = stronger DNA binding
In short: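 Probes on an Agilent 4 × 180k array were primer-extended, double-stranded and 36 bp long, taken from intergenic genomic regions, with negative controls added. GST-tagged P. falciparum DNA-binding domains from E. coli, about 25 μg on average, were applied to the array for 1 h in 1× PBS containing 1% milk, 0.2 mg/ml BSA, 0.5% salmon testes DNA and 0.03% Triton X-100. Binding intensity, obtained after Alexa488 anti-GST antibody detection and a 488 nm scan, is the highest Masliner-normalised natural-log median intensity across replicate spots of either probe orientation.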

Sequence	gcPBM binding intensity (ln)
ATATTTTTTAGGGTCACACATACTTATTATATAAAT [CACACA_site4926]	8.74 ± 0.42
AATATTTAACACCTTATACACACTTTCTTCCTTTTT [CACACA_site785]	9.13 ± 0.6
ATGATATGGATAAATACACACAATATAATAATGTCT [CACACA_site1433]	9.22 ± 0.28
CATATATACTCATACACACACACACCGACACAGACA [CACACA_site5026]	9.84 ± 0.17
TATGATGAGATAACAAAAGTTGTACTTTTTTTTTTT [CACACA_negctrl_site1172]	8.37 ± 0.45
AAACGTGCGTATATGTGTACGCATATATATATATAT [XGTACX_site5252]	10.2 ± 0.34
TTTATTAATTAAACCATACACACATAATTTTTTTAT [CACACA_site842]	8.86 ± 0.51
AAAATTAATAAATGAGAAAAAAGGATGAATAATGAG [CACACA_negctrl_site1614]	8.79 ± 0.49
AGAAAAAAAATGTATACACACAAATATAAAGAAGGA [CACACA_site3806]	9.09 ± 0.4
ATCCCAGTAATATATAGTACATAACTATAAGAGAAT [XGTACX_site6909]	9.05 ± 0.45
AAAGCACGCAAGAATACACACAAATATTATAAAAAA [CACACA_site6206]	9.22 ± 0.53
TAAAAAATTATAAAATGTACATAAAAAAAAAAAAAA [XGTACX_site3376]	8.55 ± 0.47
AGGAAAACAAAAGATGCATGCTAATTTTCCTCGCGT [TGCATGCA_site627]	8.89 ± 0.38
CTGAAGAAACTACAACGTACAAAATATGTATATATT [XGTACX_site3779]	8.96 ± 0.35
TAGCCCACATTTAATGGTACAGTGAGTATATATATG [XGTACX_site8044]	8.8 ± 0.33
ATGGAAATAAAAAAAAAAAAAAAAAAAAATATATAT [GTGCAC_negctrl_site67]	8.53 ± 0.54
TACATAAAATACCATGCATGCTAGTAAAAAAAAAAA [TGCATGCA_site650]	8.85 ± 0.54
TAATATATTTATAGAGCATGCAACGTAATATTATTA [TGCATGCA_site863]	8.96 ± 0.3
CAAATAGCTAGCTGTGCACACAAACATATTTTCCAA [CACACA_site879]	9.2 ± 0.38

Sequence	gcPBM binding intensity (ln)
CACAAACAAAGACACACACACACACGCACAAAAATG [CACACA_site7193]	10.3 ± 0.21
AAAATGCATTTGATGTGTACGCATTATAAAGAACAA [XGTACX_site4203]	9.07 ± 0.42
GTATTCATTCCTTGAGTGCAATTGCAATAAATAAAA	8.88 ± 0.45
CATATTAAGATGTGTACACATTTTTATTTTTTTTTT [CACACA_site4425]	8.74 ± 0.5
TAAAATAAAAAGTTTACACACATATATAACTTTAAT [CACACA_site6456]	8.73 ± 0.37
CCCCTATAAATAGGGTGTACTAATAAATATTTTTAA [XGTACX_site1244]	8.955 ± 0.05
ACGGGCGACACATAAGTGCGCAAAAAAAAAAAAATA [GTGCAC_site9688]	9.05 ± 0.65
GAAAAGTATAAAAAACGTACAAGTTTTATTTTCACA [XGTACX_site4604]	8.61 ± 0.48
TTTTATAAAACATGTAGTACATGAAAAAAAAAATTT [XGTACX_site1626]	8.52 ± 0.35
AAAATACAGAAACACACACACACACCCATATATATA [CACACA_site3559]	10.31 ± 0.014
ATGTTTCTATAGATTTGTACATATTTCATATGAATA [XGTACX_site1053]	8.89 ± 0.38
TTATTTTTTGTATGAACACACAACTTAATTATGATG [CACACA_site2448]	8.89 ± 0.56
TCTTTTCTTTTGTGTGTGCACATATAAGCATGAAAC [GTGCAC_site9910]	9.38 ± 0.42
TTTTTTAATTAATTACCTTTGAATGTGTATTAGGAC [GTGCAC_negctrl_site651]	8.56 ± 0.48
TTTTACAAATATTTCTGTACACATTCTCATATAATT [XGTACX_site1974]	8.87 ± 0.47
TAAAACAAAATGGTAACACACACATATATATATATA [CACACA_site8590]	9.87 ± 0.15
ATAGCATTTCACAAATGTACATAAAAAAATAAAAAT [XGTACX_site402]	8.93 ± 0.5
AAATGACGAAATAAAATCATAAATTAAAATAAATAA [CACACA_negctrl_site655]	8.68 ± 0.59
AATATATAAATATATATAAATAAATATATATATAAA [CACACA_negctrl_site49]	8.59 ± 0.5

Sequence	gcPBM binding intensity (ln)
TCCTATCATTTATATTTTACTACATAATATTGATAA [GTGCAC_negctrl_site286]	8.59 ± 0.4
AAATGGAAATTAATATGTACATATTTATAAGTATGA [XGTACX_site1774]	8.73 ± 0.45
ACATCCTATAAATAGAGTACGTAAATTATAATACAC [XGTACX_site5338]	8.97 ± 0.32
TATATATATATATATTGTACAAAGATTAATATATAA [XGTACX_site8433]	8.74 ± 0.29
ACTTAATTTTTTTATTGTACATGTAAATGAGGGAAA [XGTACX_site6305]	8.51 ± 0.39
TATTTTAATAAGAATAAATGAAATGAAATGAAATAT [CACACA_negctrl_site823]	8.5 ± 0.44
ATCAAAGATAAATTTACACACATATAAATATAAATA [CACACA_site7409]	9.07 ± 0.49
GTTTTTATCATATCATGTACGTATTTTATTTTTTTT [XGTACX_site8643]	9.13 ± 0.45
CTTCTGGACAGGAATGCACACATTTTTTTTTCTTTT [CACACA_site1807]	8.9 ± 0.47
ATGAATTTTTCTCTACAAAAGGATATAATAAAAATA [XGTACX_negctrl_site461]	8.21 ± 0.35
TAGTGTGCCAAATTAGCACACACATATATACATGAA [CACACA_site8910]	9.6 ± 0.36
TTTTCTAATTAATATTGTACATAAATGTATATATAT [XGTACX_site4749]	8.56 ± 0.44
AAAAAAAAAAAAAATACACACACACCGATATATATA [CACACA_site8142]	9.775 ± 0.092
ATACATATAATAATATGTACATATAATTATATATAT [XGTACX_site913]	8.86 ± 0.35
TATAACACACAATGATGTACATTACATTATTTTTTA [XGTACX_site2076]	8.79 ± 0.45
AATATAATATACATATGTACATATATATATATATAT [XGTACX_site8218]	9.48 ± 0.028
TAATATAAATGAAAGGTGCTTTTGCTTTCTTTTTTT	8.35 ± 0.54
ATATATATATATATGTGTACATATTTTTTTGAAGTG [XGTACX_site248]	9.565 ± 0.078
TTTTCTATATAACAACGTACATTTATTATATTATAA [XGTACX_site6148]	8.49 ± 0.45
